Assay results from PubChem BioAssay AID588855 (National Center for Advancing Translational Sciences (NCATS), 2011).
Screen size: about 410,000 compounds; about 5,000 (1.2%) were called active. Inconclusive means that the source gave no clear call. Such entries were picked first, then a sample of the others. The call rests on the fitted dose curve; in most records, active means well fitted inhibition curve with a large enough effect; inconclusive means small, poorly fitted or top-dose-only effect; inactive means no such curve, though single readings can be large or run the other way. Potencies beside an inconclusive call are fits to weak or partial responses and may not hold up.

assay: qHTS for Inhibitors of TGF-b; settings: HepG2 CAGA-GFP TGF-b/SMAD3 reporter, GFP fluorescence, 18 h, TGF-beta stimulated, 500 pg/mL final; series mostly up to 46.1 µM; activity, negative = inhibition: at the top concentration; further: nearly all actives have a fitted effect of over 65% in size
Procedure, shortened: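 HEPG2 CAGA-GFP, 1000 cells/well; 2 h settle, 37 C; cpd via pin tool; TGF-b 500 pg/mL final; 18 h, 37 C; GFP imaging ex488/em500-530; %Activity normalised to -TGF-b and +DMSO controls; CRC fit, curve class.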
On the % scale 0 is the no-effect control and ±100 the full control effect; potency means the concentration at half of the fitted maximal effect; tags describe the fitted curve by direction and shape.

**Q.** Which Potency does the source give for `O=C(CSc1ccc(-c2ccco2)nn1)Nc1ccc(F)cc1F` here?
**A.** inconclusive: 35.5 µM [inhibitor, single point]

**Q.** For `CCOc1ccccc1C(=O)OCC(=O)Nc1cccc(S(=O)(=O)N2CCCC2)c1`, which “activity, negative = inhibition” value is on record?
**A.** inactive: -13.8%

**Q.** For `CCC(=O)Nc1ccccc1-c1nc2ccccc2n(CC(=O)c2ccc(C)cc2)c1=O`, which “activity, negative = inhibition” value is on record?
**A.** inactive: 21.9%

**Q.** Which Potency does the source give for `Cc1ccc(N2CCN(C(=O)c3cnc(N4CCCCC4)c4ccccc34)CC2)c(C)c1` here?
**A.** inconclusive: 5.62 µM [inhibitor, full curve, poor fit]

**Q.** Which “activity, negative = inhibition” value does the source give for `COc1ccc(CNC(=O)CCCN2C(=O)COc3ccc(C)cc32)cc1` here?
**A.** inactive: 3.79%

**Q.** With `CCN(C(=O)CSc1nnc(-c2ccc(F)cc2)c2ccccc12)C1CCS(=O)(=O)C1` (stereo unspecified) as the compound, how does the Potency read?
**A.** inconclusive: 20 µM [inhibitor, single point]

**Q.** Which Potency does the source give for `COc1cccc(Cn2nnc3c(=O)[nH]c(C4CCN(C(=O)c5ccccc5Cl)CC4)nc32)c1` here?
**A.** inconclusive: 31.6 µM [inhibitor, single point]

**Q.** With `O=C(NCCc1ccccc1Cl)c1sc2ncccc2c1-n1cccc1` as the compound, how does the Potency read?
**A.** inconclusive: 11.2 µM [inhibitor, partial curve, poor fit]

**Q.** With `COc1cc(/C=N/NC2=NS(=O)(=O)c3ccccc32)cc(OC)c1OC` as the compound, how does the “activity, negative = inhibition” value read?
**A.** inactive: 9.67%

**Q.** For `Cc1ccc(NC(=O)c2cc3c([nH]c2=O)CC(C)(C)CC3=O)cc1`, which Potency is on record?
**A.** inconclusive: 15.8 µM [inhibitor, single point]

**Q.** With `C=C[C@H](CC(C)C)N(Cc1ccccc1)S(=O)(=O)N(Cc1ccccc1)[C@H](C=C)CC(C)C` as the compound, how does the “activity, negative = inhibition” value read?
**A.** inactive: 0.259%

**Q.** Which Potency does the source give for `CSc1ccc(CN(C)C(=O)COc2ccc(C(=O)c3ccccc3)cc2)cc1` here?
**A.** inconclusive: 14.1 µM [inhibitor, single point]

**Q.** Which Potency does the source give for `O=C(NC1CCCCC1)C(c1ccncc1)N(Cc1ccc2c(c1)OCO2)C(=O)c1cnsn1` (stereo unspecified) here?
**A.** inconclusive: 14.1 µM [inhibitor, single point]

**Q.** Which Potency does the source give for `O=C(CSc1nc(-c2ccc(F)cc2)cs1)N1CCOCC1` here?
**A.** inconclusive: 3.16 µM [inhibitor, single point]

**Q.** For `O=C(NCCN1CCN(Cc2ccc([N+](=O)[O-])cc2)CC1)C(=O)Nc1ccccc1`, which “activity, negative = inhibition” value is on record?
**A.** inactive: 0.31%

**Q.** With `Cc1ccc(C(C(=O)NC2CCCC2)N(Cc2ccc3c(c2)OCO3)C(=O)Cc2cccs2)cc1` (stereo unspecified) as the compound, how does the Potency read?
**A.** inconclusive: 5.62 µM [inhibitor, full curve]

**Q.** For `CCOC1=C2CN(S(=O)(=O)c3ccc(C)cc3)[C@H](c3cccc(Cl)c3)C[C@@H]2N(S(=O)(=O)c2ccccc2[N+](=O)[O-])[C@H](c2ccccc2)C1`, which “activity, negative = inhibition” value is on record?
**A.** inactive: -20.9%

**Q.** With `O=C(Nc1nccs1)C1(S(=O)(=O)c2ccc(Cl)cc2)CC1` as the compound, how does the Potency read?
**A.** inconclusive: 14.1 µM [inhibitor, partial curve, poor fit]

**Q.** For `Cc1sc2nc(C(C)C)nc(SCC(=O)NCc3ccco3)c2c1C`, which Potency is on record?
**A.** inconclusive: 15.8 µM [inhibitor, partial curve, poor fit]

**Q.** For `O=C(CNC(=O)c1ccco1)NCC(=O)OCC(=O)c1ccc(Cl)c([N+](=O)[O-])c1`, which Potency is on record?
**A.** inconclusive: 15.8 µM [inhibitor, single point]

**Q.** With `Cc1cccc(/C=C/c2cccs2)n1` as the compound, how does the Potency read?
**A.** inconclusive: 8.91 µM [inhibitor, partial curve, poor fit]

**Q.** Which Potency does the source give for `CNC(=S)N/N=C(\C)c1ccc(Cl)s1` here?
**A.** inconclusive: 35.5 µM [inhibitor, single point]

**Q.** With `CC(C)c1ccc(CN(C(=O)c2ccco2)C2CCS(=O)(=O)C2)cc1` (stereo unspecified) as the compound, how does the “activity, negative = inhibition” value read?
**A.** inactive: 9.35%

**Q.** Which Potency does the source give for `Cc1nc2c(-c3ccc(F)cc3)cnn2c(N)c1-c1ccc(F)cc1` here?
**A.** inconclusive: 20 µM [inhibitor, single point]

**Q.** For `COC(=O)c1ccc(Cl)c(NC(=O)CN2CCN(Cc3ccccc3)CC2)c1`, which “activity, negative = inhibition” value is on record?
**A.** inactive: 2.67%

**Q.** With `Cc1ccc2sc(C)[n+](CCO)c2c1` as the compound, how does the “activity, negative = inhibition” value read?
**A.** inactive: 8.01%

**Q.** For `Cc1ccc(C)c(N2CCN(S(=O)(=O)c3ccc4c(c3)NC(=O)CS4)CC2)c1`, which Potency is on record?
**A.** inconclusive: 22.4 µM [inhibitor, single point]

**Q.** Which Potency does the source give for `COc1cc(-c2ccc(NC(=O)CN3CCC(C)CC3)c(OC)c2)ccc1NC(=O)CN1CCC(C)CC1` here?
**A.** inconclusive: 6.31 µM [inhibitor, single point]

**Q.** With `COC(=O)COn1c(SC(C)C)nc2ccccc2c1=O` as the compound, how does the Potency read?
**A.** inconclusive: 35.5 µM [inhibitor, single point]

**Q.** For `COC(=O)c1ccc(C(=O)OC)c(NC(=S)N2CCN(c3ccccc3)CC2)c1`, which Potency is on record?
**A.** inconclusive: 35.5 µM [inhibitor, single point]

**Q.** For `C/C(=C/CCC(C)[C@H]1CC[C@@]2(C)C3=C(CC[C@]12C)[C@@]1(C)CCC(=O)C(C)(C)[C@@H]1CC3)C(=O)O` (stereo partly specified), which “activity, negative = inhibition” value is on record?
**A.** inactive: 0.42%

**Q.** With `Cc1cccc(S(=O)(=O)CC(=O)Nc2nc(-c3ccccc3)cs2)c1` as the compound, how does the Potency read?
**A.** inconclusive: 25.1 µM [inhibitor, single point]

**Q.** For `Cc1ccc(Cc2cnc(NC(=O)c3cccs3)s2)cc1`, which Potency is on record?
**A.** inconclusive: 35.5 µM [inhibitor, single point]

**Q.** Which “activity, negative = inhibition” value does the source give for `O=c1[nH]c(SCc2ccccc2Cl)nc2c1CCCC2` here?
**A.** inactive: 9.6%

**Q.** For `Cc1cc2nc(C)c(Cc3ccccc3)c(=O)n2[nH]1`, which Potency is on record?
**A.** inconclusive: 3.98 µM [inhibitor, partial curve, poor fit]

**Q.** For `O=C1c2ccccc2NC(c2ccc(Br)s2)N1O` (stereo unspecified), which “activity, negative = inhibition” value is on record?
**A.** inactive: -3.67%

**Q.** For `O=C(CSc1nn(-c2ccc(F)cc2)c(=S)s1)NCC1CCCO1` (stereo unspecified), which “activity, negative = inhibition” value is on record?
**A.** inactive: -0.525%

**Q.** Which “activity, negative = inhibition” value does the source give for `COCCCNc1nc(NCc2cccc(Cl)c2)c2cnn(C)c2n1` here?
**A.** inactive: -14.7%

**Q.** With `COc1cccc(-c2nc(N3CCC(C)CC3)c3ccccc3n2)c1O` as the compound, how does the Potency read?
**A.** inconclusive: 14.1 µM [inhibitor, single point]

**Q.** With `C=CCn1c(SCCN2C(=O)c3ccccc3C2=O)nc2scc(-c3ccc(F)cc3)c2c1=O` as the compound, how does the “activity, negative = inhibition” value read?
**A.** inactive: 27%

**Q.** For `O=c1c2c(c(-c3ccccc3)nn1Cc1ccccc1)CCCC2`, which “activity, negative = inhibition” value is on record?
**A.** inactive: 1.03%

**Q.** Which Potency does the source give for `Cc1ccc(C(c2cccc(Br)c2)c2c(C)[nH]c3ccccc23)s1` (stereo unspecified) here?
**A.** inconclusive: 25.1 µM [inhibitor, single point]

**Q.** With `Cc1c(NC(=O)COC(=O)c2ccc(F)c(S(=O)(=O)N3CCOCC3)c2)c(=O)n(-c2ccccc2)n1C` as the compound, how does the Potency read?
**A.** inconclusive: 0.562 µM [inhibitor, full curve, poor fit]

**Q.** Which “activity, negative = inhibition” value does the source give for `CSc1ccc(CCNC(=O)C2CCCN(c3nn4c(=O)cc(C)nc4s3)C2)cc1` (stereo unspecified) here?
**A.** inactive: -15.5%

**Q.** With `Cc1ccc(C(=O)N2CCSCC2)cc1` as the compound, how does the Potency read?
**A.** inconclusive: 12.6 µM [inhibitor, single point]

**Q.** With `COc1ccc(N=C2C(=O)Nc3c(C)cccc32)cc1` as the compound, how does the Potency read?
**A.** inconclusive: 0.631 µM [inhibitor, full curve]

**Q.** For `CC[C@]12c3[nH]c4ccc(OC)cc4c3CCN1C(=O)C(CC(=O)NCC13CC4CC(CC(C4)C1)C3)C[C@@H]2C(=O)N1CCN(C(=O)C2CC2)CC1` (stereo partly specified), which Potency is on record?
**A.** inconclusive: 11.2 µM [inhibitor, partial curve]

**Q.** For `COc1ccc(OCC(=O)NCC(c2ccc(OC)cc2)N2CCCCC2)cc1` (stereo unspecified), which Potency is on record?
**A.** inactive

**Q.** With `CC(=O)c1cccc(S(=O)(=O)N2CCN(c3nc4cc(C)cc(C)c4cc3C#N)CC2)c1` as the compound, how does the Potency read?
**A.** inconclusive: 2.51 µM [inhibitor, full curve, poor fit]

**Q.** With `O=C(CC1Nc2ccccc2NC1=O)Nc1ccc2c(c1)OCO2` (stereo unspecified) as the compound, how does the Potency read?
**A.** inconclusive: 6.31 µM [inhibitor, single point]

**Q.** With `CC(=O)Nc1cc(-c2ccc(S(C)(=O)=O)cc2)cn2c(-c3ccc(F)c(Cl)c3)cnc12` as the compound, how does the Potency read?
**A.** inconclusive: 4.47 µM [inhibitor, full curve, poor fit]

**Q.** With `Cc1ccc2cccc(O)c2n1` as the compound, how does the Potency read?
**A.** inconclusive: 20 µM [inhibitor, single point]

**Q.** Which Potency does the source give for `O=C(Nc1cccc(Cl)c1Cl)c1cc(S(=O)(=O)NCc2ccc3c(c2)OCO3)ccc1F` here?
**A.** inconclusive: 28.2 µM [inhibitor, single point]

**Q.** Which Potency does the source give for `CCOC(=O)N1CCN(C(=O)c2cc3n(n2)C(C(F)(F)F)CC(c2ccc4c(c2)OCO4)N3)CC1` (stereo unspecified) here?
**A.** inconclusive: 3.98 µM [inhibitor, partial curve, poor fit]

**Q.** Which Potency does the source give for `CCN(CC)S(=O)(=O)c1ccc(N2CCN(c3cccc(OC)c3)CC2)c([N+](=O)[O-])c1` here?
**A.** inconclusive: 8.91 µM [inhibitor, partial curve, poor fit]

**Q.** Which “activity, negative = inhibition” value does the source give for `CCOC(=O)c1c(O)c2cc(Cl)ccc2n(CC)c1=O` here?
**A.** inactive: -1.49%

**Q.** For `CC1CCCN(C(=O)CSc2nnc(-c3cccnc3)n2C2CCCCC2)C1` (stereo unspecified), which Potency is on record?
**A.** inconclusive: 2.82 µM [inhibitor, partial curve]

**Q.** Which “activity, negative = inhibition” value does the source give for `CCC(C)Sc1nc2c(c(=O)[nH]c(=O)n2C)n1C` (stereo unspecified) here?
**A.** inactive: -4.76%

**Q.** Which Potency does the source give for `N#Cc1ccc(/C=N/NC(=O)c2cc(-c3cccs3)nc3ccccc23)cc1` here?
**A.** inconclusive: 17.8 µM [inhibitor, single point]

**Q.** Which Potency does the source give for `Cc1cc(C2=NNC(=NC3CC3)SC2)c(C)n1-c1ccccc1` here?
**A.** inconclusive: 17.8 µM [inhibitor, partial curve, poor fit]

**Q.** With `COc1ccccc1CNC(=O)c1ccc2nc(N3CCCCC3)sc2c1` as the compound, how does the “activity, negative = inhibition” value read?
**A.** inactive: 9.84%

**Q.** With `COc1ccc([C@H]2CC(=O)C=C(c3cccc(C(C)C)c3)C2)cc1OC` as the compound, how does the Potency read?
**A.** inconclusive: 17.8 µM [inhibitor, partial curve, poor fit]

**Q.** Which Potency does the source give for `C=CCn1c(C)cc(-c2csc(NCC)n2)c1C` here?
**A.** inconclusive: 0.562 µM [inhibitor, full curve, poor fit]

**Q.** Which Potency does the source give for `C[C@H](NC(=O)c1nc[nH]c1C(=O)NC1CCNCC1)C(=O)OC(C)(C)C` here?
**A.** inconclusive: 0.501 µM [inhibitor, full curve, poor fit]

**Q.** With `COc1ccc(/C=C/c2ccnc3ccccc23)c(OC)c1` as the compound, how does the Potency read?
**A.** inconclusive: 15.8 µM [inhibitor, single point]

**Q.** With `Cc1cccc(CCNS(=O)(=O)c2ccc(S(=O)(=O)NC3CCCC3)cc2)c1` as the compound, how does the Potency read?
**A.** inconclusive: 5.62 µM [inhibitor, partial curve, poor fit]
